# Measurements published in FireProtDB (doi:10.1021/bi051669r).
# Where “and” joins values, the source holds several entries; their conditions need not be identical. Identical values can stand only once.
# Conditions: Homo sapiens, pH 7.4, CD, Sodium phosphate 10 mM, reversible: Yes
substance,measurement,setting,value
Apolipoprotein A-I wild type (sequence left out),denaturant m value,"25 °C, GdnHCl",2.5 kcal/mol/M
same,denaturant midpoint (higher = more stable),"25 °C, GdnHCl",1 M and 2.3 M
same,unfolding free energy,"25 °C, GdnHCl",2.5 kcal/mol and 4.1 kcal/mol
same,unfolding enthalpy (van 't Hoff),Thermal,41 kcal/mol and 48 kcal/mol
